This note sets out measurements from PubChem BioAssay AID1508642 (National Center for Advancing Translational Sciences (NCATS), 2021).

Molecules are shown by their SMILES. Among all 43,000 compounds or so, about 200 (0.47%) were called active. Not shown: some 12% with an inconclusive outcome. Calls come from the whole dose curve; as a rule, active = well fitted cell-killing curve with a large enough effect; inconclusive = small, poorly fitted or top-dose-only effect, or effect the other way; inactive = flat fitted curve, though single readings scatter. The list shows a part of the results.
% is set by controls: 0 for no effect and ±100 for the full control effect.

A short description of this test: Cell viability qHTS assay in S16 Pmp22-F2sN cells. Note: nearly all actives have a fitted effect of over 65% in size. As to conditions: S16 Pmp22-F2sN Schwann cells (luciferase reporters placed in the Pmp22 gene) viability, CellTiter-Glo, 24 h; series mostly up to 57.5 µM; activity change, negative = cytotoxicity: at the top concentration. The method in brief:
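S16 Schwann cells carrying the Pmp22-F2sN reporter, seeded in 1536-well format, were exposed to library compounds for 24 h at 37C. Viability was read as CellTiter-Glo luminescence after 15 min at room temperature.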
As for `CC1CCN(C(=O)C2COc3ccccc3C2)CC1` (centres undefined), the “activity change, negative = cytotoxicity” value is inactive: 0.791%. Consider `O=C(CCCn1c(=O)c2cccn2c2ccccc21)NCc1ccccc1Br`, for which the “activity change, negative = cytotoxicity” value is inactive: -10.5%. Turning to `COc1ccc(CNC(=O)CSc2c3c(nc4ccc(Cl)cc24)CCCC3)cc1`, the “activity change, negative = cytotoxicity” value was inactive: 16.8%.

With `CCc1nn(CC(=O)Nc2ccc(NC(C)=O)cc2)c(=O)c2cc3sccc3n12`, the “activity change, negative = cytotoxicity” value was inactive: -14.2%.

Consider `COc1ccc(S(=O)(=O)NCc2nc3nc(C)cc(C)n3n2)cc1OC`, for which the “activity change, negative = cytotoxicity” value is inactive: -1.55%.

Take `COc1ccc(Nc2c3c(nc4nncn24)CCC3)cc1OC`: the “activity change, negative = cytotoxicity” value is inactive: 10.6%. Then `COCCNC(=O)CN1C(=O)c2cccnc2Oc2ccc(Cl)cc21`, with inactive: 14.7%.

Take `Cc1ccc(S(=O)(=O)N(CCc2ccccc2)CC(=O)Nc2ccc(Br)cc2)cc1`: the “activity change, negative = cytotoxicity” value is inactive: 1.41%.

With `CCOC(=O)c1ccc(N2C(=O)c3n[nH]c(-c4ccco4)c3C2c2cccc(O)c2)cc1` (centres undefined), the “activity change, negative = cytotoxicity” value is inactive: 5.71%. Next, `O=C(Cn1cnc2onc(-c3ccc(Cl)cc3)c2c1=O)Nc1ccc(F)cc1`: inactive: -16.8%; `COCC(C)Nc1ncnc2c1cnn2-c1ccc(C)c(C)c1` (centres undefined): inactive: 5.73%.

`CCCOc1ccc(C2CC(=O)Nc3c2c(=O)n(C)c(=O)n3C)cc1OC` (centres undefined): the “activity change, negative = cytotoxicity” value was inactive: 16.3%. Then `CCOc1ccc(N2CC(NC(=O)C3CC3)CC2=O)cc1` (centres undefined), with inactive: -6.27%; and `COc1ccc(-n2nc(C(=O)NCc3ccc(F)cc3Cl)c3c4ccccc4n(C)c3c2=O)cc1Cl`, with inactive: 9.32%; and `Clc1ccc(Nc2c(-c3ccccc3Cl)nc3ccc(Cl)cn23)cc1`, with inactive: 21.1%. Take `COc1ccc(C)cc1NC(=O)c1cc(S(=O)(=O)N2CCN(c3cccc(C)c3C)CC2)ccc1F`: the “activity change, negative = cytotoxicity” value is inactive: -9.95%. Regarding `CCCn1c2ccc(F)cc2c2nnc(SCCN(CC)CC)nc21`, the “activity change, negative = cytotoxicity” value is inactive: -23.1%.

In the case of `Cc1ccc(C(=O)Nc2cccc(C(=O)OCc3cc(=O)n4nc(C5CC5)sc4n3)c2)cc1`, the “activity change, negative = cytotoxicity” value was inactive: 4.14%. Then `Cn1c(=O)c(=O)n(C)c2cc(S(=O)(=O)N3CCN(c4ccccc4)CC3)ccc21`, with inactive: 28.2%.

For `Cc1cccc(C(=O)Oc2c(Sc3ccccc3)c(C)nn2C(C)(C)C)c1`, the “activity change, negative = cytotoxicity” value was inactive: -3.01%.

`CC(NC(=O)c1ccc2c(c1)sc1nc(-c3ccccc3)cn12)C12CC3CC(CC(C3)C1)C2` (centres undefined): the “activity change, negative = cytotoxicity” value was inactive: 7.07%. `CCCCN(CC)CCCNC(=O)Cn1ncc2c3ccccc3n(Cc3ccc(F)cc3)c2c1=O`: the “activity change, negative = cytotoxicity” value is inactive: 5.78%.

With `Cc1ccc(CN2CCCn3nc(C(=O)NCCc4cccc(C)c4)cc3C2=O)cc1`, the “activity change, negative = cytotoxicity” value was inactive: -10.7%. Next, `CCOC(=O)c1c(S(=O)(=O)N2CCCC(C(=O)NCc3ccccc3OC)C2)c(C)n(C)c1C` (centres undefined): inactive: -2.8%; `CCc1nc(SC)ncc1C(=O)N1CCN(c2cc(C)ccc2C)CC1`: inactive: 5.1%. Then `Cc1ccc(NC(=O)c2ccc(=O)n(Cc3ccccc3C)c2)c(C)c1`, with inactive: -1.28%; and `COc1cccc(CNC(=O)C2CCCN(c3nc4ccccc4n4cccc34)C2)c1` (centres undefined), with inactive: 12.3%.

For `Cc1nn(C)c2c1c(-c1ccccc1)cc(=O)n2CC(=O)NC(C)C`, the “activity change, negative = cytotoxicity” value is inactive: -3.66%. On to `Cc1ccc(CN2CCCn3nc(C(=O)NCCc4ccccc4Cl)cc3C2=O)cc1`, for which the “activity change, negative = cytotoxicity” value is inactive: -1.99%. Next, `COc1ccc(CCNCc2ccc3c(c2)n(C)c(=O)n3C)cc1OC`: inactive: -3.44%. Then `Cc1ccc(CNC(=O)c2ccc3c(O)c(S(=O)(=O)c4ccc(Cl)cc4)c(=O)[nH]c3c2)cc1`, with inactive: 2.28%; and `Cc1ccc(-c2nc(N3CCCC(C)C3)c3ccccc3n2)cc1` (centres undefined), with inactive: 12.3%; and `CCc1ccccc1NC(=O)CSc1nc2c(oc3ccccc32)c(=O)n1C`, with inactive: -3.75%. Next, `NC(=O)C1CCN(S(=O)(=O)c2ccc(N3CCCCS3(=O)=O)cc2)CC1`: inactive: -9.78%. In the case of `COc1ccc(-c2nn(-c3ccccc3)cc2C2NC(=O)NC(C)=C2C(=O)OC(C)C)cc1OC` (centres undefined), the “activity change, negative = cytotoxicity” value is inactive: 13.1%. For the compound `Cc1ccc(-c2noc(-c3nnn(-c4cccc(C(F)(F)F)c4)c3N)n2)cc1`, the “activity change, negative = cytotoxicity” value is inactive: 0.587%. On to `COc1ccc2c(c1)c1c(c(=O)n(-c3cccc(C)c3)c(=O)n1Cc1cccc(Cl)c1)n2C`, for which the “activity change, negative = cytotoxicity” value is inactive: 14.1%. As to `O=C(c1cc2c(=O)oc3ccccc3c2s1)N1CCN(c2ccccc2)CC1`, the “activity change, negative = cytotoxicity” value is inactive: 1.12%.

For the compound `Cc1ccc(-n2nc(C)c3c(C)cc(=O)n(CC(=O)Nc4cccc(C)c4C)c32)cc1`, the “activity change, negative = cytotoxicity” value is inactive: -10.5%. Then `O=C(Nc1cc2c(cc1C(=O)c1ccccc1Br)OCCO2)c1cccc(Cl)c1`, with inactive: 5.16%; and `COc1ccccc1CNc1ncnc2c1cnn2-c1ccc(C)cc1`, with inactive: -2.76%. Next, `Cc1nc(-n2nc(C)c(CCC(C)C)c2C)sc1C(=O)Nc1ccc(Cl)cc1`: inactive: -3.13%; `COc1ccc(N2C(=O)CSC23C(=O)N(Cc2cccc(F)c2)c2ccccc23)cc1Cl` (centres undefined): inactive: 14.3%; `O=S(=O)(c1ccc2nc(N3CCN(c4ccccc4F)CC3)ccc2c1)N1CCCCC1`: inactive: 2.17%. Turning to `CCc1ccc(NS(=O)(=O)c2[nH]ncc2C(=O)OC)cc1`, the “activity change, negative = cytotoxicity” value was inactive: 19%. Next, `Cc1ccccc1Cn1c(=O)n(-c2ccc(Cl)cc2)c(=O)c2c3c(sc21)CCCC3`: inactive: 3.11%; `CC(C)NC(=O)CN1C(=O)CCn2nc(-c3cn(C)c4ccccc34)cc21`: inactive: 7.39%. `COCCNC(=O)CCCn1c(SCC(=O)NCc2ccc(C)cc2)nc2c(sc3ccccc32)c1=O`: the “activity change, negative = cytotoxicity” value was inactive: 1.61%. For the compound `CCC(C)NC(=O)c1sc2nc(C)c(C(=O)Nc3ccc(C)cc3C)c(-c3ccc(NC(C)=O)cc3)c2c1N` (centres undefined), the “activity change, negative = cytotoxicity” value was inactive: -16.5%.
